Data reported in the supplement of paper PMC4166925.
± gives the standard deviation of the averaged measurements. Whole data set: some 33,000 sequences, median “E-score (dimensionless, -0.5 to 0.5)” near -0.046, cut for the highest 2% near 0.36. This is one part of the list.

System: T1, SpTbr T-box DNA-binding domain (GST fusion)
T1 sequence: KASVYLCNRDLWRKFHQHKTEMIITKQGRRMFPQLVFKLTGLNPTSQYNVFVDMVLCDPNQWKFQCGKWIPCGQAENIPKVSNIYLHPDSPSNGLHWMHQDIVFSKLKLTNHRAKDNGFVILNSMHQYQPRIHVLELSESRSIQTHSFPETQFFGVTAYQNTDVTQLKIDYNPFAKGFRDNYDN
Test: PBM E-score of 8-mer (E-score (dimensionless, -0.5 to 0.5)); Tbr is Tbrain of the sea star Patiria miniata (Pm) or the sea urchin Strongylocentrotus purpuratus (Sp); higher = stronger binding preference; most listed sequences are background and not binding sites
Conditions: the construct has about 5 more residues each side
Summary of the method: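 GST-fused Tbr T-box DNA-binding domains (the whole T-box plus about five flanking residues) were expressed in BL21 E. coli at 20 °C and purified by glutathione affinity chromatography. Universal Agilent oligonucleotide arrays were made double-stranded by primer extension, incubated with 200 nM protein in PBS (pH 7.5), then scanned and quantified. Every ungapped 8-mer was scored from probe intensities. The Universal PBM Analysis Suite gave each word an enrichment E-score, averaged over duplicate arrays.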

Sequence | PBM E-score of 8-mer
AACATCGC | 0.0569 ± 0.065
CAACTCCA | 0.0927 ± 0.053
AATTGGAT | -0.0299 ± 0.013
ATTAAAAT | -0.126 ± 0.06
CTTATTCA | -0.0323 ± 0.066
TAATAAGA | -0.179 ± 0.015
CGGGACTC | -0.0785 ± 0.012
ATCCCTGG | -0.168 ± 0.072
AGAAATAT | 0.00487 ± 0.067
AATAACTA | 0.0245 ± 0.099
CGTCGAGA | -0.0352 ± 0.014
GACGTGGC | 0.115 ± 0.014
CGGAGTAA | -0.0963 ± 0.081
CCATTAAG | -0.267 ± 0.012
AAAACATT | -0.106 ± 0.092
GCAATGAC | 0.0858 ± 0.024
CGGTAGTC | -0.352 ± 0.046
TCCCACAA | -0.0771 ± 0.052
ATGCAAGA | -0.335 ± 0.026
GAAGTCTA | -0.215 ± 0.047
ACCAGGCG | 0.189 ± 0.05
AGGATAAT | -0.0969 ± 0.042
AACATCTT | -0.183 ± 0.015
AGCATCGA | -0.0977 ± 0.0023
TGTGCGAA | 0.458 ± 0.0092

Sequence | PBM E-score of 8-mer
GCACGGGA | -0.19 ± 0.044
GACCTTTA | -0.242 ± 0.0044
CTGCCCGC | -0.112 ± 0.11
CGGTTATA | -0.00559 ± 0.033
GAAGCGTA | -0.0732 ± 0.0097
ACTGAGGC | 0.0776 ± 0.12
AATCTATC | -0.0426 ± 0.025
AACTGGAT | 0.0369 ± 0.034
AATACTCC | -0.0546 ± 0.014
CAGTGCCC | -0.187 ± 0.014
CGTCGGGC | 0.0868 ± 0.09
GAACTAAC | 0.135 ± 0.023
CTTATCCC | -0.0931 ± 0.015
CCTTTCCA | -0.129 ± 0.034
GCCTCTAA | -0.0401 ± 0.018
CGATAACC | 0.197 ± 0.017
GGTCAGAC | -0.274 ± 0.051
ATCCATCA | -0.143 ± 0.065
GGCGAGAC | 0.18 ± 0.042
ATTTTGTC | 0.0877 ± 0.0066
CAGTCGAA | -0.236 ± 0.075
AAGTTATT | -0.245 ± 0.016
ACGCTAAA | 0.114 ± 0.0078
GGCCATCA | -0.148 ± 0.037
ACCTTCAT | 0.2 ± 0.012

Sequence | PBM E-score of 8-mer
GATCTGAA | -0.123 ± 0.0013
ATAAAGTG | 0.203 ± 0.0045
CCTAGGAA | -0.263 ± 0.033
GATGTCTA | -0.225 ± 0.0015
AATGGAAT | -0.316 ± 0.032
CCTTTACG | -0.21 ± 0.027
CTGAAGCC | -0.315 ± 0.046
CTGACTCA | 0.0267 ± 0.052
CAGTACGC | -0.2006 ± 0.00062
CAATGTGG | 0.0647 ± 0.085
ACTAGATA | -0.105 ± 0.0032
ATAGTTTC | -0.108 ± 0.012
AACGGCAT | -0.156 ± 0.018
ACAACAGT | 0.141 ± 0.014
CAGATGAC | -0.0314 ± 0.026
ACTCAAAC | -0.162 ± 0.094
GACTTACC | -0.0974 ± 0.05
CTCAGCGC | 0.047 ± 0.0037
GGGGGGTA | -0.28 ± 0.013
AACAATTG | 0.248 ± 0.036
GGCCCCCA | -0.287 ± 0.099
CTACTAGC | 0.00751 ± 0.031
ACGACCCC | -0.0644 ± 0.023
GATGCTGA | -0.105 ± 0.029
ACGGAAAG | -0.141 ± 0.019

Sequence | PBM E-score of 8-mer
GACGCTAC | 0.152 ± 0.0046
CTTACCAA | -0.114 ± 0.011
CTATACCC | -0.116 ± 0.055
TGTCACAA | 0.297 ± 0.024
ACTAACCT | -0.0493 ± 0.065
CGGACGAG | -0.251 ± 0.053
AATGAATA | -0.127 ± 0.03
GTACCGCA | -0.0877 ± 0.037
CCAACACG | 0.232 ± 0.013
GCCTGTCC | -0.197 ± 0.0094
TCTTCACA | 0.395 ± 0.015
CGCACAAC | 0.185 ± 0.049
ATCTCCGA | -0.275 ± 0.016
ATGAAGCC | -0.199 ± 0.023
GTGATATA | 0.16 ± 0.011
CACCTAGC | 0.40555 ± 0.00015
ACTGAGTC | -0.0511 ± 0.064
GGCCGCGA | 0.198 ± 0.12
AGGAATTG | -0.0973 ± 0.0076
CCGAGTAG | -0.197 ± 0.044
ATCCCGGG | -0.0384 ± 0.033
CAGCTGAA | -0.0943 ± 0.019
AGTACCCA | -0.09716 ± 0.00044
CTGCTCCC | -0.017 ± 0.0026
TCCTTAAA | -0.212 ± 0.074

Sequence | PBM E-score of 8-mer
AAAAGCTA | -0.128 ± 0.061
ATAAAGTA | -0.123 ± 0.08
CACCCTCA | 0.231 ± 0.047
GGGTTTTA | -0.234 ± 0.057
ACGCCCGG | 0.147 ± 0.045
CGGGGCTA | -0.315 ± 0.0072
AAGTCTTG | 0.133 ± 0.013
CTTTACTC | 0.0468 ± 0.055
CATACATG | -0.142 ± 0.011
GGGCGCGA | 0.422 ± 0.031
CTCCAAGC | 0.00859 ± 0.0076
AGAGGAAG | -0.159 ± 0.013
CAGCCTCC | -0.239 ± 0.021
ATGTTACG | 0.116 ± 0.025
ACTCGCAA | 0.258 ± 0.018
AAATCACG | 0.197 ± 0.038
CCCTCAGC | -0.157 ± 0.023
CCCGCGGC | 0.0336 ± 0.044
GGCCTCAA | -0.198 ± 0.061
AGCCCCGG | -0.443 ± 0.074
GATCAACA | 0.175 ± 0.013
CGTGAGAC | 0.2491 ± 0.0021
AAACCTGG | 0.0197 ± 0.059
CACGAGCA | -0.0317 ± 0.036
TCCGCAGA | -0.202 ± 0.046

Sequence | PBM E-score of 8-mer
ATCCGCGC | 0.267 ± 0.032
AATCTCGG | -0.104 ± 0.036
GTAAGACA | -0.047 ± 0.0024
TATTTAAA | -0.0758 ± 0.063
AATTGCAC | 0.23 ± 0.07
AGTTCCAA | -0.125 ± 0.032
GGGACCGA | -0.208 ± 0.055
GGTATTAC | -0.132 ± 0.05
CGTACTGC | -0.117 ± 0.052
AATACCCA | -0.179 ± 0.047
AAACAAGG | -0.07 ± 0.073
CATTGGGG | -0.0924 ± 0.024
CAGGGTTC | -0.0176 ± 0.035
ATCCATTC | -0.137 ± 0.018
AAAGCGAA | -0.0892 ± 0.0045
AGTCTAGG | -0.211 ± 0.11
AGGGGCAA | -0.0853 ± 0.061
AAGTGATG | 0.237 ± 0.02
AGTGTTGA | 0.351 ± 0.006
GCACCGAA | -0.0295 ± 0.034
AATTCGAG | -0.045 ± 0.00036
CCATTTAA | -0.0291 ± 0.0095
ATCCTTGG | -0.231 ± 0.11
AGAAAAAA | -0.0087 ± 0.017
CACTCAGC | 0.0954 ± 0.064

Sequence | PBM E-score of 8-mer
ACTTCTCG | 0.214 ± 0.0043
AACTCGTC | 0.134 ± 0.019
AAGTTGAG | 0.0359 ± 0.094
GGATTCGA | -0.13 ± 0.018
AAGACTGT | -0.188 ± 0.056
CAGGTCGA | 0.1155 ± 0.00032
ACGAAACC | -0.0634 ± 0.12
CGCGATGC | 0.116 ± 0.016
CTTCTCCA | -0.157 ± 0.023
CATATCGG | -0.153 ± 0.049
AGTTCCCA | -0.0324 ± 0.023
ACAGGTGA | 0.373 ± 0.0074
AGGGTCCG | -0.136 ± 0.015
CAGGACGC | -0.0113 ± 0.052
TGTGTCAA | 0.398 ± 0.011
CAAATATA | -0.222 ± 0.045
CAGGGGGC | -0.114 ± 0.056
AGCGGTAG | 0.0117 ± 0.066
GCCCGCGA | 0.0846 ± 0.054
GTCCTGGA | -0.341 ± 0.011
AAAATCGG | -0.22 ± 0.0073
ACCTGTAT | 0.126 ± 0.014
